In patent US20250051441A1 (FBD BIOLOGICS, published 2025):

Biological target: T1, human CD47 expressed on cell surface (human, UniProt Q08722)
T1 construct: whole, on cells; The same entry is used for CD47 on CHO-S transfectants, FaDu cells, human RBCs and platelets; also called CD47 tf CHO-S; CD47-expressing FaDu cells
Test: flow cytometry, whole cell binding to CD47-expressing FaDu cells, PE anti-human IgG, MFI (GeoMean)

B1: HCB201-B (Fc fusion)
chain: [letters of about 350 residues with a human IgG4 Fc left out]AAASGEGKSSGSGSESKSTGMFAQLVAQNVLLIDGPLSWYSDPGLAGVSLTGGLSYKEDTKELVVAKAGVYYVFFQLELRRVVAGEGSGSVSLALHLQPLRSAAGAAALALTVDLPPASSEARNSAFGFQGRLLHLSAGQRLGVHLHTEARARHAWQLTQGATVLGLFRVT
notes: also called HCB201 protein
EC50 (read off the curve): ~0.3 nM

B2: HCB201-C (Fc fusion)
chain 1: [letters of about 120 residues left out]KPSGSGGSGGSGGSGEE[letters of about 120 residues left out]KPSASESKYGPPCPPCPAPEFLGGPSVFLFPPKPKDTLMISRTPEVTCVVVDVSQEDPEVQFNWYVDGVEVHNAKTKPREEQFNSTYRVVSVLTVLHQDWLNGKEYKCKVSNKGLPSSIEKTISKAKGQPREPQVCTLPPSQEEMTENQVSLTCLVKGFYPSDIAVEWESNGQPENNYKTTPPVLDSDGSFFLYSWLTVDKSRWQEGNVFSCSVMHEALHNHYTQKSLSLSLGK
chain 2: RQGMFAQLVAQNVLLIDGPLSWYSDPGLAGVSLTGGLSYKEDTKELVVAKAGVYYVFFQLELRRVVAGEGSGSVSLALHLQPLRSAAGAAALALTVDLPPASSEARNSAFGFQGRLLHLSAGQRLGVHLHTEARARHAWQLTQGATVLGLFRVTPEGGGGSGGGGSRQGMFAQLVAQNVLLIDGPLSWYSDPGLAGVSLTGGLSYKEDTKELVVAKAGVYYVFFQLELRRVVAGEGSGSVSLALHLQPLRSAAGAAALALTVDLPPASSEARNSAFGFQGRLLHLSAGQRLGVHLHTEARARHAWQLTQGATVLGLFRVTPEGGGGSGGGGSRQGMFAQLVAQNVLLIDGPLSWYSDPGLAGVSLTGGLSYKEDTKELVVAKAGVYYVFFQLELRRVVAGEGSGSVSLALHLQPLRSAAGAAALALTVDLPPASSEARNSAFGFQGRLLHLSAGQRLGVHLHTEARARHAWQLTQGATVLGLFRVTPEASESKYGPPCPPCPAPEFLGGPSVFLFPPKPKDTLMISRTPEVTCVVVDVSQEDPEVQFNWYVDGVEVHNAKTKPREEQFNSTYRVVSVLTVLHQDWLNGKEYKCKVSNKGLPSSIEKTISKAKGQPREPRVYTLPPCQEEMTKNQVSLTCLVKGFYPSDIAVEWESNGQPENNYKTTPPVLVSDGSFTLYSRLTVDKSRWQEGNVFSCSVMHEALHNHYTQKSLSLSLGK
notes: also called HCB201 protein
EC50 (read off the curve): ~0.2 nM
